Measurements published in PubChem BioAssay AID1030 (National Center for Advancing Translational Sciences (NCATS), 2008).
Screen size: about 220,000 compounds; about 16,000 (7.3%) were called active. The inconclusive results got no clear call from the source; some entries with a clear call stand among them for comparison. Calls follow the shape of the dose curve; as a rule, active = well fitted inhibition curve with a large enough effect (not every such curve was filed as active); inconclusive = small, poorly fitted or top-dose-only effect, or another doubt; inactive = no such curve, though single readings can be large or run the other way. Potencies beside an inconclusive call are fits to weak or partial responses and may not hold up.

The compounds below were run against Aldehyde dehydrogenase 1A1 (Homo sapiens) (UniProt P00352) (assay: qHTS Assay for Inhibitors of Aldehyde Dehydrogenase 1 (ALDH1A1)). Conditions: Purified ALDH1A1, NADH fluorescence, propionaldehyde substrate; series mostly up to 75.3 µM; activity, negative = inhibition: at the top concentration.
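For activity, negative = inhibition in this document: plate controls were no enzyme wells and a reference inhibitor.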
Potency is read from the fitted curve at half-maximal effect; tags tell the direction and shape of the fitted curve.

Sequence of UniProt P00352 (P00352 whole entry, looked up): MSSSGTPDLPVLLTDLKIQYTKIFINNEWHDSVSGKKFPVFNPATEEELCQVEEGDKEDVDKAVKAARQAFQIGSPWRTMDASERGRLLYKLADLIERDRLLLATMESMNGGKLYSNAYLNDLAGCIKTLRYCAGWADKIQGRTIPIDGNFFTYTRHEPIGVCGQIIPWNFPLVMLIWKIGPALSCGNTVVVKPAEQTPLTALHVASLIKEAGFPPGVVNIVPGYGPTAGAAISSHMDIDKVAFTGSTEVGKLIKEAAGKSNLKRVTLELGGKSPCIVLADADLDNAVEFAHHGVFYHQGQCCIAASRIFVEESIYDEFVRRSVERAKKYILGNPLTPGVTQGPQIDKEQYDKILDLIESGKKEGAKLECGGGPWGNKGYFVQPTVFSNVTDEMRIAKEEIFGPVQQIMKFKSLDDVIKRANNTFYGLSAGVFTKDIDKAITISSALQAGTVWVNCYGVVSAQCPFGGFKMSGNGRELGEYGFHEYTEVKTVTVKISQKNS

Potency, inconclusive:
O=C1Cc2ccccc2Sc2ccccc21 22.4 µM [inhibitor, partial curve]
CC(C)c1ccc(SCc2noc(C(=O)NCC3CCCO3)c2C(=O)O)cc1 (stereo not given) 15.8 µM [inhibitor, partial curve]
c1ccc(SCCN2CCc3ccccc3C2)cc1 39.8 µM [inhibitor, single point]
COC(=O)CCCC1=CC2=C(c3ccccc3)C(=O)C(C)(OC(=O)C3CCCC3)C(=O)C2=CN1CCCCO (stereo not given) 8.91 µM [inhibitor, single point]
COc1ccc(C(CC(=O)c2ccc(C)cc2)C(C#N)C#N)cc1OC (stereo not given) 8.91 µM [inhibitor, single point]
Cc1cccc(C2C3=C(Nc4[nH]n(-c5ccccc5)c(=O)c42)c2ccccc2C3=O)c1 (stereo not given) 20 µM [inhibitor, partial curve]
Cc1nc2ccccc2n1CC(O)COC1CCCCC1 (stereo not given) 39.8 µM [inhibitor, single point]
Nc1nonc1C(=O)OCC(=O)N1CCCCC1 39.8 µM [inhibitor, single point]
Cc1cccc(NS(=O)(=O)c2ccccc2)n1 39.8 µM [inhibitor, single point]
COc1ccc(NS(=O)(=O)c2ccc(NC(=S)NC(=O)/C=C/c3ccccc3)cc2)nn1 39.8 µM [inhibitor, single point]
O=S1(=O)CCN(c2ccccc2CC(c2c[nH]c3ccccc23)c2c[nH]c3ccccc23)CC1 3.98 µM [inhibitor, single point]
C=CCSc1n[nH]c2nc3c(c(=O)n12)C1(CCCC1)Cc1ccccc1-3 15.8 µM [inhibitor, partial curve]
CCN1C(=O)c2ccc(-c3nc4ccccc4c(=O)o3)cc2C1=O 2.51 µM [inhibitor, full curve]
O=Nc1ccc(NOC(=O)c2ccccc2)cc1 25.1 µM [inhibitor, partial curve]
COCCOC(=O)C1=C(C)Nc2cc(=O)[nH]c(=O)n2C1c1cccc([N+](=O)[O-])c1 (stereo not given) 39.8 µM [inhibitor, single point]
CCN(CC)C(=O)CSc1nc2ccccc2c(=O)n1OC(C)C 39.8 µM [inhibitor, single point]
COc1ccc(CC(=O)Nc2ccc(-c3nnc(-c4ccccc4)o3)cc2)cc1 39.8 µM [inhibitor, partial curve]
COc1cccc(/C=C/C(=O)OCC(=O)NCc2ccc(Cl)cc2)c1 35.5 µM [inhibitor, single point]
O=C(CN(c1cccc(Cl)c1)S(=O)(=O)c1ccccc1)NN=C1CCCC1 39.8 µM [inhibitor, single point]
C=CC1=C(C)C2=NC1=CC1=NC(=CC3=NC(=CC4=NC(=C2)C(C)=C4CCC(=O)O)C(CCC(=O)O)=C3C)C(C=C)=C1C.[Zn] 8.91 µM [inhibitor, full curve]
Cc1ccc(CN2C(=O)/C(=C\c3ccc(C(=O)NCc4cccnc4)cc3)Oc3ccccc32)cc1 29.9 µM [inhibitor, partial curve]
CCCCNC(=O)CSc1nnc(-c2ccco2)n1C 31.6 µM [inhibitor, single point]
COCCn1c(=O)c(CCc2ccccc2)nc2cnc(N3CCN(C)CC3)nc21 28.2 µM [inhibitor, partial curve]
CCCCN(C)C(=S)Nc1ccc2nc3n(c(=O)c2c1)CCCCC3 17.8 µM [inhibitor, partial curve]
Cn1nnnc1SCC(=O)Nc1cc(S(=O)(=O)N2CCCC2)ccc1Cl 35.5 µM [inhibitor, single point]
COc1cc(NC(=S)NCc2ccc(S(N)(=O)=O)cc2)cc(OC)c1 37.7 µM [inhibitor, single point]
COc1ccc(NC(=O)/C(C#N)=C\c2cc(OC)c(OCc3ccc(C(=O)O)cc3)cc2Br)cc1 28.2 µM [inhibitor, partial curve]
S=C(Nc1ccc(Cl)cc1)NC1CC2CCCC(C1)N2C1CC1 (stereo not given) 39.8 µM [inhibitor, single point]

Potency, active:
Cn1cccc1Cc1nnc(SCC(=O)N2CCCCCC2)n1CCc1ccccc1 25.1 µM
CCc1ccccc1NC(=O)CSc1nnc([C@H](CCSC)NC(=O)OC(C)(C)C)o1 22.4 µM
CCC(OC(=O)CN1C(=O)C(=O)c2ccccc21)C(=O)Nc1ccc(S(N)(=O)=O)cc1 (stereo not given) 0.0891 µM
CC(C)=NNC(=O)c1c(O)c2ccccc2[nH]c1=O 12.6 µM

activity, negative = inhibition, inactive:
O=C(Nc1ccccc1O)c1cc(S(=O)(=O)N2CCOCC2)c(Cl)cc1Cl 2.91%
Cc1ccc(C(=O)NC(=S)NNC(=O)CC#N)cc1 -0.078%
CCCN1CCC(=NNc2ccc(S(N)(=O)=O)cc2[N+](=O)[O-])CC1 -4.28%
COc1ccc(OC)c(C2Nc3c(Cl)ccc(C(=O)O)c3C3C=CCC32)c1 (stereo not given) 2.96%
CC(C)NCCCCOc1ccc(Br)cc1Cl -10.4%
COc1ccc(CCNC(=O)c2ccc(C)s2)cc1OC -7.41%
CC(=O)Nc1ccc(OCC(O)CN2C(C)(C)CC(O)CC2(C)C)cc1 (stereo not given) 3.52%
NC(=O)NC(=O)CC1S/C(=N/N=C2/NC(=O)CS2)NC1=O (stereo not given) 0.762%
O=C(O)c1ccccc1NS(=O)(=O)c1ccc(Cl)c(Cl)c1 2.51%
COC(=O)C1=C(C)N(CCc2cc(OC)c(OC)c(OC)c2)C(=O)N[C@H]1c1ccccc1 8.83% [at 13.5 µM]
Clc1ccsc1-c1csc(-c2cccnc2)n1 -5.3%
CCOC(=O)c1c(-c2ccc(C)o2)csc1NC(=O)CSc1ncn[nH]1 -16.8%
N/C(CSc1ccc(Cl)cc1)=N\NC(=O)c1ccncc1 -0.193%
